Assay results from paper PMC4336329 (PLoS ONE, 2015).
Among all 310,000 compounds or so, about 2,200 (0.71%) showed an effect of 50% or more. The effect is printed as a negative number. This is one part of the list.

Each compound was assayed against human ether-à-go-go-related gene (hERG) potassium channel (human, UniProt Q12809) (assay: primary screen, population patch clamp on CHO cells stably expressing hERG).
Sequence of human ether-à-go-go-related gene (hERG) potassium channel (Q12809 whole entry, looked up): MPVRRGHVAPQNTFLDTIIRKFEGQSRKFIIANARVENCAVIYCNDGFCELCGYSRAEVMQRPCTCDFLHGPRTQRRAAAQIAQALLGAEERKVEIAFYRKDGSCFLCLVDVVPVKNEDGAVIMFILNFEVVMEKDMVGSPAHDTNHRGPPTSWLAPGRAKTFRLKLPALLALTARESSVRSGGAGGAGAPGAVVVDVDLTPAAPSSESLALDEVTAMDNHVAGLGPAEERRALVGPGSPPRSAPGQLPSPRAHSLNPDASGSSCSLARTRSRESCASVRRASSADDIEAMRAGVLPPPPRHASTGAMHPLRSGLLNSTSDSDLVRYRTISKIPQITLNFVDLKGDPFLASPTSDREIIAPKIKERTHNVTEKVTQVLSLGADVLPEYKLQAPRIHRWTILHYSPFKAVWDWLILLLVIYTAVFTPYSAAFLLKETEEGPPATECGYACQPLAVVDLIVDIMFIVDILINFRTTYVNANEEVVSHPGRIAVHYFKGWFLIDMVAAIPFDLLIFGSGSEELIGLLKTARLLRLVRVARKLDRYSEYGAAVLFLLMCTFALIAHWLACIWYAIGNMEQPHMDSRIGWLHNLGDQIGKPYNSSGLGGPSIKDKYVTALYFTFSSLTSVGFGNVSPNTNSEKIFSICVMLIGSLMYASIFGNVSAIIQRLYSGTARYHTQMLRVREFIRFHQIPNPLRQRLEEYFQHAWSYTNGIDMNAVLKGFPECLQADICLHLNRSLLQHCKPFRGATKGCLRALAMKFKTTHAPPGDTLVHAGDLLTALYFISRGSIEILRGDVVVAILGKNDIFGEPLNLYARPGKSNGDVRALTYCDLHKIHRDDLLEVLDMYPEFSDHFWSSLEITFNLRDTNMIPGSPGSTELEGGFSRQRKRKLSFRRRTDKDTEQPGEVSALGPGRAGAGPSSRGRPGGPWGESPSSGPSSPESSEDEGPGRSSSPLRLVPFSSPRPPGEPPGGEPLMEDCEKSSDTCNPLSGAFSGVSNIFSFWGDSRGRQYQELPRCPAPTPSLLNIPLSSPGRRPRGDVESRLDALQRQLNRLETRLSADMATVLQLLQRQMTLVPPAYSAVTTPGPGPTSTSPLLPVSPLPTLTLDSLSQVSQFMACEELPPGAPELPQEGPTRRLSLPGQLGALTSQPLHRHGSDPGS

Compound | hERG current change (%, negative = inhibition) at 1uM [%]
COc1ccc(NC(=O)/C(C#N)=C/c2ncc([N+](=O)[O-])n2C)c(OC)c1 | 9.55
O=[N+]([O-])c1ccccc1/C=N/n1c(C2CCCCC2)n[nH]c1=S | -3.78
CCNC(=O)C(=O)NCC(c1cccs1)S(=O)(=O)c1ccc(C)cc1 (stereo not drawn) | 9.52
O=C(N/N=C/c1ccccc1)c1ccc(NC(=O)c2ccc(F)cc2)cc1 | 10.7
CN(C)N=Nc1ccc(-c2cn(Cc3ccccc3)cn2)cc1 | 10.9
O=Cc1c(OCc2ccccc2)ccc2ccccc12 | 13.5
O=C(CSc1nnc(-c2ccc(Br)cc2)o1)Nc1cccc2ccccc12 | 1.45
c1ccc(NC2=NCCN2CCC2CCCC2)cc1 | -7.24
COc1ccc2cc(C(c3nnnn3C(C)(C)C)N3CCSCC3)c(=O)[nH]c2c1 (stereo not drawn) | 6.18
Cn1c(=O)n(C)c2cc([N+](=O)[O-])c(N3CCN(C(=O)c4cccc(F)c4)CC3)cc21 | -7.87
COc1cc(C(=O)Nc2ccc(NC(=O)c3ccccc3Cl)nc2)cc(OC)c1OC | 10.9
CN1CCC(N(C)C(=O)c2cccc(S(=O)(=O)N3CCOCC3)c2)CC1.Cl | 14.4
Cc1ccc(N(C)C(=O)c2cc(S(=O)(=O)N3CCCCC3)c[nH]2)cc1 | 10.8
CCC1CCCCN1C(=O)CSc1nnc2nc(C)cc(C)n12 (stereo not drawn) | 8.62
O=C(CCCSc1nc2ccccc2[nH]1)N1CCN(c2ccccc2)CC1 | -32.8
O=C(Cc1ccc(Cl)cc1)Nc1ccc(Br)cn1 | 14
CC(Sc1nnc(CN2CCCC2)n1Cc1ccccc1)C(=O)Nc1ccccc1 (stereo not drawn) | -25.1
CCN(CC)CC(=O)n1c2c(c3ccccc31)CCCC2 | -5.57
COc1ccc(CNC(=O)COc2cc(O)c3c(c2)OC(C)(C)CC3=O)c(OC)c1 | -3.43

Compound | hERG current change (%, negative = inhibition) at 1uM [%]
CCC(=O)N1CCNC(=O)C1CC(=O)Nc1ccc(C)c(Cl)c1 (stereo not drawn) | -0.756
O=C(CCC1=NS(=O)(=O)c2ccccc2N1)NC1CCCCCCC1 | 19.7
CC(C)n1cnc2c(Nc3cccc(Cl)c3)nc(N(CCO)CCCO)nc21 | 1.73
CCOC(=O)C1CCCN(c2ncnc3c2cnn3-c2ccc(OC)cc2)C1 (stereo not drawn) | -3.74
S=C1NC[C@H](c2ccccc2)N1CCCCC1CCCCC1 | 12.9
COC(=O)c1ccc(OCC(O)CN2CCOCC2)cc1 (stereo not drawn) | 12.2
C/C(CCS(=O)(=O)c1ccccc1)=N/O | 12.5
CC(CNS(=O)(=O)c1cc(Cl)ccc1Cl)CN(C)C (stereo not drawn) | 16.3
O=C(Cn1nc(-c2ccccc2)ccc1=O)NCc1ccc(F)cc1 | 2.01
COC(=O)CNC(=O)CSc1nc(N)cc(=O)[nH]1 | 10.3
CCOc1ccc(-n2cc(-c3ccc(OC)c(OC)c3)[nH]c2=S)cc1 | 10.3
O=C(c1ccc(F)cc1F)N1CCCC(c2nc(-c3ccc(F)cc3)no2)C1 (stereo not drawn) | 7.75
Cc1ccccc1N1CC(C(=O)Nc2nnc(SCc3ccccn3)s2)CC1=O (stereo not drawn) | 11.8
CCCNC(=O)c1cccc(Cn2cc(Br)c([N+](=O)[O-])n2)c1 | 6.4
O=C(CC1SCCNC1=O)Nc1cccc(C(F)(F)F)c1 (stereo not drawn) | -3.68
CN(C)C(=O)CSc1nnc(Cc2ccccc2)n1Cc1ccco1 | 9.15
COC(=O)C1=C(C)N(C)C(=O)NC1c1ccsc1 (stereo not drawn) | 14.2
N#CC1=C(N)c2ccccc2CC12CCCCC2 | 11.9
COc1ccc(C(=O)n2nc(-c3ccccc3)nc2N)cc1OC | 15.7

Compound | hERG current change (%, negative = inhibition) at 1uM [%]
O=C(CCc1nc2sc3c(c2c(=O)[nH]1)CCCC3)N1CCN(c2ccccc2)CC1 | 2.09
COc1ccc(OC)c(-n2nnnc2SCC(=O)NCCc2ccccc2)c1 | 0.177
CNS(=O)(=O)c1cccc2cccnc12 | 13.5
CC(=O)N1CCc2cc(S(=O)(=O)CCC(=O)NCc3ccc(C)o3)ccc21 | 27.5
CS(=O)(=O)c1ccc(C(=O)N(CCc2ccccc2)Cc2ccccc2)cc1 | 8.18
COc1ccc(/C=C(\C#N)C(=O)OCC(=O)N2CC(C)OC(C)C2)cc1 (stereo not drawn) | 5.91
COc1ccc(NC(=O)CN2CCN(S(=O)(=O)N3CCCCCC3)CC2)cc1 | -60.8
CCN(CC(=O)Nc1ccc(OC)cc1)C(=O)c1ccc(Cl)c(S(=O)(=O)N2CCCC2)c1 | 11.9
COc1ccc(/C=N/NC(=O)c2ccc(O)cc2O)cc1CSc1ccccn1 | 11.7
Cc1ccc(-n2[nH]c(C)c(/C=N/c3ccccn3)c2=O)cc1 | 4.28
O=C(c1ccc(N2C(=O)C3C4c5ccccc5C(c5ccccc54)C3C2=O)cc1)N1CCOCC1 (stereo not drawn) | 7.89
Cc1ccc(OCCSc2nc3ccccc3n2CC(=O)O)c(C(C)C)c1 | -1.26
C=CCN(C(=O)c1csnn1)C(C(=O)NCc1ccccc1)c1c(F)cccc1Cl (stereo not drawn) | 5.34
Cc1[nH]c(C)c(S(=O)(=O)NCc2ccco2)c1C(=O)N1CCCCC1 | 12.1
O=C(N/C(=C/c1cccnc1)C(=O)N1CCOCC1)c1ccccc1F | 4.61
CCc1ccccc1NC1=NCC(=O)N1C1CCCCC1 | 5.94
Cn1c(CSCC(=O)Nc2ccccc2)nnc1SCc1ccccc1 | 3.05
S=c1[nH]nc(-c2ccccc2Cl)n1Cc1ccccc1 | 7.49
COc1ccccc1CNC(=O)C(=O)NCC1OCCN1S(=O)(=O)c1ccccc1 (stereo not drawn) | 8.16
